Data: patent US20220332824A1 (published 2022)

B1: Fc fusion protein sdAb-PD1b-IgG4PE (Fc fusion)
chain: EVQLVESGGGLVQPGGSLRLSCAVSGNIYNRNFMGWFRQAPGKGLEGVSAIYTGTSRTYYADSVKGRFTISRDNSKNTVYLQMNSLRAEDTAVYYCAADLREGFWDTGVWNTWGQGTLVTVSS[human IgG4 Fc with changes not written out]
B2: Fc fusion protein sdAb-PD1a-IgG4PE (Fc fusion)
chain: EVQLVESGGGLVQPGGSLRLSCAVSGNIYNRNFMGWFRQAPGKGREGVSAIYTGTSRTYYADSVKGRFTISRDNAKNTVYLQMNSLRPEDTAVYYCAADLRDGFWDTGVWNTWGQGTLVTVSS[human IgG4 Fc with changes not written out]

How the values were obtained:
CD47 = CD47 (UniProt Q08722); experiment: FACS binding, CHO-K1 cells expressing CD47
human PD-1 = human PD-1 (human, UniProt Q15116 25-288); experiment: FACS binding, CHO-K1 cells expressing human PD-1
Sequence of human PD-1 (Q15116 25-288): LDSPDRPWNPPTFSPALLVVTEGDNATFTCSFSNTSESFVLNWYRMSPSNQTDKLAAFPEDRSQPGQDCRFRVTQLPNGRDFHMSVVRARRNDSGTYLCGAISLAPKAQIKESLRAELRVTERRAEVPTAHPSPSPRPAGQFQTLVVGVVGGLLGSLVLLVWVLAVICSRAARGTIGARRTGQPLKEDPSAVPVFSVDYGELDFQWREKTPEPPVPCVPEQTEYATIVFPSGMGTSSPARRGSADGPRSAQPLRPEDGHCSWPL

Sequence of CD47 (Q08722 19-323): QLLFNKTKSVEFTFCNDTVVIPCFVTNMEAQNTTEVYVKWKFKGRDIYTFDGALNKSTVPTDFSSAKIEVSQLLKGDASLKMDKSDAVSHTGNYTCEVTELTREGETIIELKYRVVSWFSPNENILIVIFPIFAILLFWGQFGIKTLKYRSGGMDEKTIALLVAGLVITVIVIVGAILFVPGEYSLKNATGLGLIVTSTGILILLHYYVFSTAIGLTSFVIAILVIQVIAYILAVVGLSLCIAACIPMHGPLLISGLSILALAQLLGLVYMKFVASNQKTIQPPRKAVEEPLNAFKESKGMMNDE

Row | Binder | EC50 (CD47) [nM] | EC50 (human PD-1) [nM]
1 | B1 | ~63.8 | 4.73
2 | B2 | – | 9.97
